{"source": "the supplement of paper PMC11417369", "note": "Some of the results follow."}
{"system": "PfSIP2 AP2 domain 1 (GST-tagged)", "test": "gcPBM binding intensity (ln(normalized median fluorescence intensity)); higher = stronger DNA binding", "procedure,_shortened": "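GST-tagged P. falciparum DNA-binding domains, expressed in E. coli (about 25 μg on average), were applied for 1 h to an Agilent 4 × 180k array of primer-extended double-stranded 36-bp intergenic genomic probes plus negative controls. The binding buffer was 1× PBS with 1% milk, 0.2 mg/ml BSA, 0.5% salmon testes DNA and 0.03% Triton X-100. Bound protein was detected with Alexa488 anti-GST antibody and scanned at 488 nm. Binding intensity is the highest Masliner-normalised natural-log median intensity across replicate spots of either probe orientation.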"}
{"sequence": "TTTTTATCAACAAATAATACCATAACTCATATTTAT [CACACA_negctrl_site740]", "gcPBM binding intensity (ln)": 6.88}
{"sequence": "AAAATGTTATTGGAAAGTACAAAAAAAATTATATAA [XGTACX_site4074]", "gcPBM binding intensity (ln)": 6.83}
{"sequence": "TTAATATATATATATATATATATATTTTTATTTTTT [CACACA_negctrl_site763]", "gcPBM binding intensity (ln)": 7.57}
{"sequence": "ATAAAACGTACAATGGTGCATATAAATAATATATAT [GTGCAC_site9960]", "gcPBM binding intensity (ln)": 10.8}
{"sequence": "CATATATAGATATATACACACATATATAAATAAATA [CACACA_site6759]", "gcPBM binding intensity (ln)": 6.93}
{"sequence": "TATGTATATTCTTTCAGTACACATAATGTTGTCATA [XGTACX_site8845]", "gcPBM binding intensity (ln)": 7.12}
{"sequence": "TAAATATATTTATACACACACACCAAAGCAATAGAT [CACACA_site7393]", "gcPBM binding intensity (ln)": 7.33}
{"sequence": "GGATTCAAAAAAAAAAATAAAAGTAAATAATAAATA [TGCATGCA_negctrl_site348]", "gcPBM binding intensity (ln)": 6.92}
{"sequence": "TTCAATATACATATGTGTACTAAAATAAATAGAAAA [XGTACX_site5708]", "gcPBM binding intensity (ln)": 7.21}
{"sequence": "ATTACAACATTTTATACACACGTGATTATTAATTTT [CACACA_site5581]", "gcPBM binding intensity (ln)": 7.21}
{"sequence": "TATATTTCAGGGGGGAGTACAAATTTTTTTATATAA [XGTACX_site1600]", "gcPBM binding intensity (ln)": 9.68}
{"sequence": "TTTATGAAGTAAAAATATAAATTCACAAAGTTAAAA [CACACA_negctrl_site1476]", "gcPBM binding intensity (ln)": 6.71}
{"sequence": "AAGAACAGAACGTACACACACATATTTATATTTATA [CACACA_site7594]", "gcPBM binding intensity (ln)": 7.08}
{"sequence": "ATTTGTAATATTAAATGTACAGGTAAGAAATATCAG [XGTACX_site1562]", "gcPBM binding intensity (ln)": 7.49}
{"sequence": "TAAGGAAAAAAAATATGTACTTATAGTTCCTTCTTT [XGTACX_site2202]", "gcPBM binding intensity (ln)": 6.8}
{"sequence": "CATTATGTACAAAAAGTGCAATATATATTAACACTG", "gcPBM binding intensity (ln)": 8.23}
{"sequence": "TTATATATATATATATATATATATATATATATAAAT [GTGCAC_negctrl_site126]", "gcPBM binding intensity (ln)": 8.38}
{"sequence": "AACAAAATAAGAAAACGTACAAATGTTTCAAATTCT [XGTACX_site1544]", "gcPBM binding intensity (ln)": 6.83}
{"sequence": "TTTTCAAAGATATATACACACATGCATATTACGGTG [CACACA_site6505]", "gcPBM binding intensity (ln)": 7.01}
{"sequence": "TTTTTGAGTGCACATACACACAGACATACATTTAAA [CACACA_site5813]", "gcPBM binding intensity (ln)": 11.5}
{"sequence": "TTAATAAATATCAATACACACACACTAATGTGAATA [CACACA_site9254]", "gcPBM binding intensity (ln)": 6.86}
{"sequence": "TGTATGAAATATATTACACACATATATAATATATAT [CACACA_site793]", "gcPBM binding intensity (ln)": 7.27}
{"sequence": "GTGTAAATAAGGATATATAACAATCAACAAAACATA [CACACA_negctrl_site1759]", "gcPBM binding intensity (ln)": 7.07}
{"sequence": "ATATTTTTCAAACATCGTACATTATGAGTTAAAATT [XGTACX_site584]", "gcPBM binding intensity (ln)": 7.02}
{"sequence": "ATACACAAAATTATTAAATCAATAAATATATGGTTT [CACACA_negctrl_site353]", "gcPBM binding intensity (ln)": 6.77}
{"sequence": "TTATAAATGAATAAATGTACAAAATATATATATATA [XGTACX_site8829]", "gcPBM binding intensity (ln)": 9.08}
{"sequence": "CATAACATAAAATAGGTGCACAAAAATTGTAATTGA", "gcPBM binding intensity (ln)": 11.2}
{"sequence": "CACACCCACCAACACACACACACACCCACCCATATA [CACACA_site366]", "gcPBM binding intensity (ln)": 7.11}
{"sequence": "TTGTAATATATGTATTGTACGCATATAACAATTATT [XGTACX_site3652]", "gcPBM binding intensity (ln)": 6.99}
{"sequence": "TTCAGTGTATACATATGTACATATATATATATATAT [XGTACX_site1621]", "gcPBM binding intensity (ln)": 9.44}
{"sequence": "ATTTTTATTTGTTACGCATGCATAAAAGTGCATACT [TGCATGCA_site547]", "gcPBM binding intensity (ln)": 8.56}
{"sequence": "AAAATACATAAATGTTCACACATTAAAAAGCAGAAG [CACACA_site5346]", "gcPBM binding intensity (ln)": 7.13}
{"sequence": "TTTATAAAGAAACACACACACATGTGAACATAAAAA [CACACA_site1908]", "gcPBM binding intensity (ln)": 6.93}
{"sequence": "TATGTCAGATGAAAGGGTACATAATATAATATATTT [XGTACX_site8062]", "gcPBM binding intensity (ln)": 6.97}
{"sequence": "TTTTTATTACATAATTAAAAAAAATAATAAAATAAA [XGTACX_negctrl_site249]", "gcPBM binding intensity (ln)": 6.8}
{"sequence": "TTTTTTTTTTAATTCGCACACTGTCTTCATACAATT [CACACA_site1379]", "gcPBM binding intensity (ln)": 7.14}
{"sequence": "ATATATATATATTTATGTACTTAATAATTTATTCAC [XGTACX_site7301]", "gcPBM binding intensity (ln)": 9.08}
{"sequence": "TGCAGTCTGGAGAAAAGTACATAGTATCTGGTAACC [XGTACX_site2019]", "gcPBM binding intensity (ln)": 6.78}
{"sequence": "ATATCATTAAAAGGATGTACATATGTGTATACAATA [XGTACX_site871]", "gcPBM binding intensity (ln)": 7.06}
{"sequence": "TAATATCTAAAAAATATATTTTTTATTTTTTATTAA [CACACA_negctrl_site510]", "gcPBM binding intensity (ln)": 6.8}
{"sequence": "TACATACATACATACACACACACATATATATACATA [CACACA_site853]", "gcPBM binding intensity (ln)": 8.01}
{"sequence": "AATTTAAAATAATATTGTACTTAGATATAAATATGA [XGTACX_site4198]", "gcPBM binding intensity (ln)": 6.82}
{"sequence": "TAAAAAATATAAACTGCACACACAAAAAAAAAAGAG [CACACA_site8379]", "gcPBM binding intensity (ln)": 8.49}
{"sequence": "ATGGTACACAAATATACATGCAATAATAAAAAAAAA [TGCATGCA_site879]", "gcPBM binding intensity (ln)": 7.23}
{"sequence": "CATTAATATATATATACATGCACGTTTTAAAAAAAA [TGCATGCA_site875]", "gcPBM binding intensity (ln)": 8.15}
